Laboratory results taken from PubChem BioAssay (NCATS).
Where “and” joins values, the source holds several entries; their conditions need not be identical. Equal entries are not always repeated. The shares of active, inactive and inconclusive entries below differ from those in the screen. Where the call is inconclusive, the potency comes from a doubtful curve fit. Calls of active or inactive are those of the source. The call rests on the fitted dose curve; in most records, active means well fitted curve in the direction sought with a large enough effect; inconclusive means small, poorly fitted or top-dose-only effect, or another doubt; inactive means no such curve, though single readings can be large; an effect the other way counts as inactive or inconclusive.

Key:
[1] = Viability qHTS for spleen associated tyrosine kinase inhibitor (SYKi) drug resistant MV4-11 cells (AID 1963824); details: SYKi-resistant MV4-11 viability, CellTiter-Glo, 72 h; series mostly up to 45 µM; further: nearly all actives have a fitted effect of over 35% in size
Procedure, shortened: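 CellTiter-Glo luminescence, read 10 min after reagent addition, reports viability after a 72 hr compound exposure. Cells are an MV4-11 line made resistant to SYK inhibition, seeded at 500 per well onto compound-containing plates.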

[2] = Quantitative highthroughput screen to assess conditional lethalithy of NOMO1 cells grown in RPMI1640 with untreated serum (RPMI+s) (AID 1963876); details: NOMO1 AML cells in RPMI+serum, CellTiter-Glo viability, 48 h; viability: at 45.8 µM (top of the series); further: nearly all actives have a fitted effect of over 35% in size
Procedure, shortened: (§1)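 Each medium arm—HPLM with 10% dialyzed FBS, or RPMI1640 with 5 mM glucose and 10% untreated or dialyzed FBS—was screened against an 11-point, 3-fold compound titration for 48 h at 37 °C, with CellTiter-Glo luminescence as endpoint.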

[3] = Quantitative highthroughput screen to assess conditional lethalithy of NOMO1 cells grown in RPMI1640 with dialyzed fetal bovine serum (RPMI+ds) (AID 1963877); details: NOMO1 in RPMI+dialyzed FBS viability, ATP luminescence, 48 h; series mostly up to 45.8 µM; further: nearly all actives have a fitted effect of over 30% in size
Procedure, shortened: as §1

[4] = Quantitative highthroughput screen to assess conditional lethalithy of NOMO1 cells grown in Human Plasma-Like Medium with dialyzed fetal bovine serum (HPLM+ds) (AID 1963878); details: NOMO1 AML cells in HPLM+ds, CellTiter-Glo viability, 48 h; viability: at 45.8 µM (top of the series); further: nearly all actives have a fitted effect of over 35% in size
Procedure, shortened: as §1

[5] = Quantitative highthroughput screen to assess conditional lethalithy of P12 Ichikawa cells grown in RPMI1640 with dialyzed fetal bovine serum (RPMI+ds) (AID 1963880); details: ATP luminescence, 48 h; Potency: P12-Ichikawa viability; series mostly up to 45.8 µM; further: nearly all actives have a fitted effect of over 35% in size
Procedure, shortened: as §1

[6] = Quantitative highthroughput screen to assess conditional lethalithy of SEM cells grown in RPMI1640 with dialyzed fetal bovine serum (RPMI+ds) (AID 1963884); details: SEM B-ALL cells, RPMI+dialyzed FBS, CellTiter-Glo viability, 48 h; viability: at 45.8 µM (top of the series); further: nearly all actives have a fitted effect of over 35% in size
Procedure, shortened: as §1

[7] = Quantitative highthroughput screen to assess conditional lethalithy of P12 Ichikawa cells grown in RPMI1640 with untreated serum (RPMI+s) (AID 1963881); details: ATP luminescence, 48 h; Potency: viability; series mostly up to 45.8 µM; further: nearly all actives have a fitted effect of over 35% in size
Procedure, shortened: as §1

[8] = Quantitative highthroughput screen to assess conditional lethalithy of SEM cells grown in Human Plasma-Like Medium with dialyzed fetal bovine serum (HPLM+ds) (AID 1963882); details: SEM B-ALL cells in HPLM+ds, CellTiter-Glo viability, 48 h; series mostly up to 45.8 µM; further: nearly all actives have a fitted effect of over 35% in size
Procedure, shortened: as §1

[9] = Cellular viability qHTS for adrenocortical cancer (ACC) cell line SW-13 (AID 1963989); details: SW-13 ACC cells viability, CellTiter-Glo, 48 h; activity (max response): stronger effect = lower value; further: nearly all actives have a fitted effect of over 65% in size
Procedure, shortened: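 IC50 and maximal-response values come from four-parameter logistic fits of titration data. SW-13 cells in serum-free medium received compounds (up to 46 uM final) for 48 h before CellTiter-Glo luminescence.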

[10] = Cellular viability qHTS for adrenocortical cancer (ACC) cell line NCI-H295R (AID 1963990); details: CellTiter-Glo ATP luminescence, 48 h; series mostly up to 46.1 µM; further: nearly all actives have a fitted effect of over 60% in size
Procedure, shortened: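 Adrenocortical carcinoma cells, suspended at 300 000 cells/mL in serum-free DMEM plus ITS, rested overnight before pin transfer of compound. After two days' incubation, ATP-dependent luminescence was recorded and curve-fitted.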

[11] = Quantitative highthroughput screen to assess conditional lethalithy of P12 Ichikawa cells grown in Human Plasma-Like Medium with dialyzed fetal bovine serum (HPLM+ds) (AID 1963879); details: ATP luminescence, 48 h; Potency: viability; series mostly up to 45.8 µM; further: nearly all actives have a fitted effect of over 35% in size
Procedure, shortened: as §1

[12] = Quantitative highthroughput screen to assess conditional lethalithy of SEM cells grown in RPMI1640 with unreated serum (RPMI+s) (AID 1963883); details: SEM B-ALL cells, CellTiter-Glo viability, 48 h; viability: at 45.8 µM (top of the series); further: nearly all actives have a fitted effect of over 35% in size
Procedure, shortened: as §1
Potency means the concentration at half of the fitted maximal effect; tags describe the fitted curve by direction and shape.

Row | Compound | Potency [1] | Potency [2] | Potency [3] | Potency [4] | Potency [5] | Potency [6] | Potency [7] | Potency [8] | Potency [9] | Potency [10] | Potency [11] | Potency [12]
1 | COc1ccc2c(c1)CC[C@@H](CN(C)CC(=O)O)[C@H]2c1ccccc1 | inconclusive: 38.2 µM [cytotoxic, partial curve] and inactive | inconclusive: 5900 nM [cytotoxic, full curve] | inconclusive: 5900 nM [cytotoxic, full curve] | inconclusive: 5900 nM [cytotoxic, full curve] | inconclusive: 3720 nM [cytotoxic, full curve] | inconclusive: 3320 nM [cytotoxic, full curve] | – | – | – | – | – | –
2 | COc1cccc2cc(-c3nc(C4CCC(C(=O)O)CC4)n4ncnc(N)c34)[nH]c12 (configuration not stated) | active: 580 nM and active: 461 nM | inconclusive: 1480 nM [cytotoxic, full curve] | inconclusive: 1320 nM [cytotoxic, full curve] | inconclusive: 372 nM [cytotoxic, full curve] | inconclusive: 526 nM [cytotoxic, full curve] | – | active: 590 nM | active: 590 nM | inconclusive: 28200 nM [cytotoxic, single point] | inconclusive: 17800 nM [cytotoxic, partial curve, poor fit] | – | –
3 | CNC(=O)[C@H](Cc1ccccc1)NC(=O)[C@H](CC(C)C)[C@H](CSc1cccs1)C(=O)NO | active: 2.95 µM | inactive | – | inactive | – | – | – | – | – | – | inconclusive: 16600 nM [cytotoxic, partial curve, poor fit] | –
4 | CCn1cc(C(=O)O)c(=O)c2ccc(C)nc21 | inactive | inconclusive: 20900 nM [cytotoxic, single point] | – | inconclusive: 20900 nM [cytotoxic, partial curve] | – | active: 5900 nM | – | – | – | – | – | inconclusive: 11800 nM [cytotoxic, single point]
5 | CC(C)(O)c1cc2nc(-c3cnc(N)nc3)nc(N3CCOCC3)c2s1 | active: 1.16 µM | active: 1870 nM | inconclusive: 332 nM [cytotoxic, full curve] | inconclusive: 935 nM [cytotoxic, full curve] | inconclusive: 935 nM [cytotoxic, full curve] | inconclusive: 662 nM [cytotoxic, full curve] | inconclusive: 590 nM [cytotoxic, full curve] | inconclusive: 662 nM [cytotoxic, full curve] | – | – | – | inconclusive: 833 nM [cytotoxic, full curve]
6 | CC(C)C[C@H](NC(=O)[C@@H](NC(=O)c1cccc(-c2ccccc2)n1)[C@@H](C)O)B(O)O | inconclusive: 0.013 µM [cytotoxic, full curve] | active: 74.3 nM | active: 105 nM | – | active: 59 nM | active: 14.8 nM | active: 37.2 nM | – | active: 285 nM | – | active: 52.6 nM | –
7 | COc1cc(C(=O)NS(=O)(=O)c2ccccc2C)ccc1Cc1cn(C)c2ccc(NC(=O)OC3CCCC3)cc12 | inconclusive: 13.3 µM [cytotoxic, partial curve, poor fit] and inconclusive: 29.5 µM [cytotoxic, partial curve, poor fit] | inconclusive: 33200 nM [cytotoxic, single point] | inconclusive: 29600 nM [cytotoxic, single point] | inconclusive: 33200 nM [cytotoxic, single point] | inconclusive: 37200 nM [cytotoxic, single point] | inconclusive: 37200 nM [cytotoxic, single point] | inconclusive: 37200 nM [cytotoxic, single point] | – | inconclusive: 18.4 µM [cytotoxic, single point] and inconclusive: 31.6 µM [cytotoxic, single point] | inconclusive: 29100 nM [cytotoxic, single point] | – | inconclusive: 23500 nM [cytotoxic, partial curve, poor fit]
8 | CC(=O)c1cnc2ccc(-c3cc(Cl)c(O)c(Cl)c3)nc2c1NC1CCC(CN(C)C)CC1 (configuration not stated) | active: 11.9 nM and active: 2.9 nM | active: 132 nM | active: 132 nM | – | – | – | active: 148 nM | – | active: 75.1 nM | – | inconclusive: 132 nM [cytotoxic, full curve] | –
